Out of some 46,000 compounds screened, about 60 (0.1%) were called active. About 3% were inconclusive and are not listed. Calls come from the whole dose curve; as a rule, active = well fitted inhibition curve with a large enough effect; inconclusive = small, poorly fitted or top-dose-only effect; inactive = no such curve, though single readings can be large or run the other way. This is one part of the list.
Experiment: Primary qHTS assay for Inhibitors of ovarian cancer metastasis using an organotypic tumor microenvironment (TME) model.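 For Potency: count of GFP cancer cells still attached after washing and fixation.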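 For activity change, negative = inhibition: plate controls were DMSO wells for no effect and tomatine positive control wells for full effect.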 Note: nearly all actives have a fitted effect of over 65% in size.
Conditions: SKOV3ip1-GFP adhesion/invasion on 3D omental model, fluorescence; series mostly up to 45.8 µM; activity change, negative = inhibition: at the top concentration
Summary of the method: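 Primary human omental fibroblast/mesothelial 3D culture pre-formed 48 h. SKOV3ip1-GFP cells added with compounds (0.36-46 umol/L), incubated 2 h RT/16 h 37 C, fixed; GFP cells quantified at 488/509 nm.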
Potency is the fitted concentration of half-maximal effect.

For `Cc1ccc(-n2ncc(C(=O)NCCCN3CCN(C)CC3)c2C2CCN(C(=O)OC(C)(C)C)CC2)cc1`, which “outcome” value is on record?
The value was “inactive”.

Which “outcome” value does the source give for `Cc1cc(C)c(NC(=O)CN2C(=O)CCn3nc(-c4cccn4C)cc32)c(C)c1` here?
The value was “inactive”.

With `Cc1ccccc1CN1c2ccccc2-c2nc(SCC(=O)Nc3cc(F)ccc3F)ncc2S1(=O)=O` as the compound, how does the “activity change, negative = inhibition” value read?
Its value is inactive: -5.09%.

With `Cc1cccc(NC(=O)CN(C)S(=O)(=O)c2cnc[nH]2)c1C` as the compound, how does the “activity change, negative = inhibition” value read?
The value was inactive: 4.61%.

Which “activity change, negative = inhibition” value does the source give for `O=C(Cc1ccc(NC(=O)N2CCCCc3ccccc32)cc1)Nc1ccccc1Br` here?
The value was inactive: -6.48%.

Which “activity change, negative = inhibition” value does the source give for `Cc1ccc(Cl)cc1NC(=O)c1cc(-c2ccc3c(c2)OCCO3)on1` here?
Its value is inactive: 36.1%.

With `Cc1cc(C)c(NC(=O)CSc2cn(CC(=O)N3CCOCC3)c3ccccc23)c(C)c1` as the compound, how does the “activity change, negative = inhibition” value read?
Its value is inactive: -6.28%.

Which “activity change, negative = inhibition” value does the source give for `CCCCNc1cc(N2CCN(C3CCCCC3)CC2)c2noc3c2c1C(=O)c1ccccc1-3` here?
The value was inactive: 25.2%.

For `CCCCC(=O)N1CCN(c2nc3c(C)c(C)ccc3s2)CC1`, which “activity change, negative = inhibition” value is on record?
The value was inactive: 0.523%.

For `CCc1ccc2c(c1)c(=O)c(C(=O)c1ccc(C)cc1)cn2CC(=O)Nc1ccccc1C`, which “activity change, negative = inhibition” value is on record?
Its value is inactive: 27.7%.

With `CCc1ccc2c(c1)c(=O)c(C(=O)c1ccccc1)cn2CC(=O)Nc1ccc(C)c(Cl)c1` as the compound, how does the “outcome” value read?
Its value is “inactive”.

With `CCc1ccc(Cn2c(CNS(=O)(=O)c3ccc4c(c3)CCCC4)nc3cccnc32)cc1` as the compound, how does the “activity change, negative = inhibition” value read?
Its value is inactive: -0.346%.

For `CCN1CCN(C(=O)c2ccc3c(c2)N(Cc2ccc(Cl)cc2)C(=O)c2ccccc2S3=O)CC1` (stereo not given), which “activity change, negative = inhibition” value is on record?
Its value is inactive: -7.77%.

With `CCOc1ccc(NC(=O)c2oc3ccccc3c2NC(=O)Cc2cccs2)cc1` as the compound, how does the “activity change, negative = inhibition” value read?
The value was inactive: -0.922%.

Which “activity change, negative = inhibition” value does the source give for `Cc1oc2ncn(CC(C)C)c(=O)c2c1C(=O)NCCCN1CCCCC1C` (stereo not given) here?
Its value is inactive: 2.42%.

Which “activity change, negative = inhibition” value does the source give for `COc1cccc(Cn2c(=O)n(CC3CCC(C(=O)N4CCOCC4)CC3)c(=O)c3sccc32)c1` (stereo not given) here?
The value was inactive: 6.87%.

Which “outcome” value does the source give for `Cc1cc(C)c2c(n1)SCC(=O)N2CC(=O)Nc1cccc(C)c1C` here?
The value was “inactive”.

With `Cc1ccc(NC(=O)CSc2nc3nccnc3c(=O)n2CCc2c[nH]c3ccccc23)c(C)c1` as the compound, how does the “activity change, negative = inhibition” value read?
The value was inactive: -1.53%.

With `COc1ccc(-c2c(C)nn3c(-c4ccccc4)cc(-c4ccccc4)nc23)cc1` as the compound, how does the “activity change, negative = inhibition” value read?
Its value is inactive: -10.5%.

Which “activity change, negative = inhibition” value does the source give for `CCc1ccccc1NC(=O)c1ncoc1-c1ccco1` here?
The value was inactive: 0.319%.

Which Potency does the source give for `Cc1cccc(C)c1OCC(=O)Nc1c(C(=O)c2ccccc2)oc2ccccc12` here?
The Potency was active: 10 µM.

Which “activity change, negative = inhibition” value does the source give for `COc1ccc(-c2nnc(SCC(=O)NCCc3ccccc3)nc2-c2ccc(OC)cc2)cc1` here?
Its value is inactive: 0.319%.

With `Cc1ccc(-c2nnn3c2nc(N2CCC(C)CC2)c2ccccc23)cc1` as the compound, how does the “activity change, negative = inhibition” value read?
Its value is inactive: -1.71%.

Which “activity change, negative = inhibition” value does the source give for `CCOc1ccc(NC(=O)c2ncn(-c3ccccc3)n2)cc1` here?
Its value is inactive: 7.13%.

For `O=C(CSc1ncc2c(n1)-c1cc(Cl)ccc1N(Cc1ccccc1)S2(=O)=O)NCc1ccccc1`, which “outcome” value is on record?
The value was “inactive”.

Which “activity change, negative = inhibition” value does the source give for `O=C1CSC2(C(=O)N(Cc3c(F)cccc3Cl)c3ccccc32)N1c1ccc(F)c(F)c1` (stereo not given) here?
The value was inactive: -8.48%.

For `Cc1ccc(OCCSc2nc3ccccc3n2CC(=O)NC(C)C)cc1`, which “activity change, negative = inhibition” value is on record?
The value was inactive: -4.25%.

With `O=C(O)CCCn1cc(NC(=O)COc2ccccc2F)cn1` as the compound, how does the “activity change, negative = inhibition” value read?
The value was inactive: -24.1%.

Which “activity change, negative = inhibition” value does the source give for `O=C(Nc1ccc(OC(F)(F)F)cc1)C(NS(=O)(=O)c1cccc2nsnc12)c1ccccc1` (stereo not given) here?
The value was inactive: 6.17%.

With `CCc1ccc(C(=O)c2cn(CC(=O)Nc3ccc(OC)cc3)c3cc4c(cc3c2=O)OCCO4)cc1` as the compound, how does the “outcome” value read?
The value was “inactive”.

With `Cc1cc(SCC(=O)Nc2ccc(C(F)(F)F)cc2)nc(=O)[nH]1` as the compound, how does the “outcome” value read?
Its value is “inactive”.

For `CCCCOC(=O)c1ccc(NC(=O)c2cc(=O)c3ccccc3o2)cc1`, which “activity change, negative = inhibition” value is on record?
The value was inactive: 3.49%.

With `Cc1ccc(C)c(N2CCN(C(=O)c3cccn4c(=O)c5ccccc5nc34)CC2)c1` as the compound, how does the “activity change, negative = inhibition” value read?
The value was inactive: -23.3%.

Which “activity change, negative = inhibition” value does the source give for `COCCCNC(=O)C1CCN(C(=O)c2cc3sccc3n2Cc2ccc(Cl)cc2)CC1` here?
The value was inactive: -16.2%.

For `Cc1cccc(CSc2ccc3nnc(CCNS(=O)(=O)c4ccccc4)n3n2)c1`, which “activity change, negative = inhibition” value is on record?
The value was inactive: -0.55%.

With `COc1ccc(C(=O)Nc2ccc3nc(N4CCCCC4)cc(C)c3c2)cc1OC` as the compound, how does the “outcome” value read?
The value was “inactive”.

With `COc1ccc(CCNC(=O)c2ccc(CSCc3ccc(C)cc3)o2)cc1OC` as the compound, how does the “activity change, negative = inhibition” value read?
The value was inactive: 1.93%.

For `CCOc1ccc(S(=O)(=O)NCCc2csc3nc(-c4cccc(C)c4)nn23)cc1`, which “outcome” value is on record?
Its value is “inactive”.

For `Cc1ccc(C(=O)Nc2nnc(S(=O)(=O)N3CCCc4ccccc43)s2)cc1`, which “activity change, negative = inhibition” value is on record?
The value was inactive: -21.2%.

For `COc1cc(NS(=O)(=O)c2cc3c(cc2C)n(C)c(=O)c(=O)n3C)cc(OC)c1`, which “activity change, negative = inhibition” value is on record?
The value was inactive: -3.38%.

With `COc1cccc(C(=O)Nc2ccc(C(=O)OCc3cc(=O)n4cc(C)sc4n3)cc2)c1` as the compound, how does the “outcome” value read?
Its value is “inactive”.

With `Cc1nc2c(C(=O)NCCc3ccccc3)c[nH]n2c(=O)c1Cc1ccccc1F` as the compound, how does the “outcome” value read?
The value was “inactive”.

Which “activity change, negative = inhibition” value does the source give for `O=C(Nc1nnc(S(=O)(=O)N2CCOCC2)s1)c1cccc(Br)c1` here?
Its value is inactive: -2.88%.

With `O=S(=O)(c1ccc(Cl)cc1)N1CCC(c2ccncc2)CC1` as the compound, how does the “activity change, negative = inhibition” value read?
The value was inactive: 3.68%.

With `Cc1nc2ccc(S(=O)(=O)NCC(=O)Nc3ccc(C)c(Cl)c3)cc2s1` as the compound, how does the “activity change, negative = inhibition” value read?
The value was inactive: -4.44%.

With `Cc1cc(C)cc(NC(=O)CSc2nc3c(cnn3-c3ccc(F)cc3)c(=O)[nH]2)c1` as the compound, how does the “activity change, negative = inhibition” value read?
Its value is inactive: 4.92%.

For `COc1ccc(-c2nc3c4ccccc4n(CC(=O)Nc4ccc(C(C)=O)cc4)c(=O)n3n2)cc1`, which “activity change, negative = inhibition” value is on record?
Its value is inactive: -9.37%.

For `Cc1ccccc1C(=O)NC1(C(F)(F)F)C(=O)Nc2c1c(=O)[nH]c(=O)n2CCc1ccccc1` (stereo not given), which “activity change, negative = inhibition” value is on record?
The value was inactive: 16%.

For `CCC(Sc1ccc2nnc(CCNS(=O)(=O)c3ccc(OC)cc3)n2n1)C(=O)OC` (stereo not given), which “activity change, negative = inhibition” value is on record?
The value was inactive: -8.33%.

With `Cc1ccc(-c2cc3ncc4c(n3n2)-c2ccccc2OC4)cc1` as the compound, how does the “activity change, negative = inhibition” value read?
The value was inactive: -3.22%.

With `COc1cc(NC(=O)NCCn2nnc3cc(S(=O)(=O)N(C)C)ccc32)cc(OC)c1OC` as the compound, how does the “outcome” value read?
Its value is “inactive”.

Which “activity change, negative = inhibition” value does the source give for `COc1cc(NC(=O)c2cc3cc4ccc(OC)c(Cl)c4nc3s2)cc(OC)c1` here?
The value was inactive: -5.88%.

With `CCOCCCNC(=O)c1ccc2c(c1)NC(=O)C(CS(=O)(=O)Cc1ccc(F)cc1Cl)N2` (stereo not given) as the compound, how does the “activity change, negative = inhibition” value read?
The value was inactive: -16.5%.

Which “activity change, negative = inhibition” value does the source give for `Cc1cc2[nH]c(=O)c(=O)[nH]c2cc1S(=O)(=O)NCc1ccc(F)cc1` here?
The value was inactive: -1.44%.

With `Cc1cc(C)n(-c2nc3ccccc3nc2Nc2ccc(C(C)C)cc2)n1` as the compound, how does the “activity change, negative = inhibition” value read?
Its value is inactive: -5.19%.

Which “activity change, negative = inhibition” value does the source give for `Cc1ccc(C2=NN(CC(=O)NCCCN(CC(C)C)CC(C)C)C(=O)CC2)cc1` here?
Its value is inactive: -8.52%.

For `CCCCc1nn2c(=O)cc(COC(=O)c3cccc(NC(=O)COc4ccccc4)c3)nc2s1`, which “activity change, negative = inhibition” value is on record?
The value was inactive: -3.96%.

With `O=C(NC1CCCCCC1)C1CCN(C(=O)N2CCOc3ccc(Cl)cc32)CC1` as the compound, how does the “activity change, negative = inhibition” value read?
The value was inactive: -0.929%.

With `Cc1cc(C)c(NC(=O)C(C)n2c(=O)cc(C)c3c(C)nn(-c4ccccc4)c32)c(C)c1` (stereo not given) as the compound, how does the “activity change, negative = inhibition” value read?
Its value is inactive: 2.3%.

For `CCC(=O)OCC(=O)[C@@]1(OC(=O)CC)[C@@H](C)C[C@@H]2[C@H]3CCC4=CC(=O)C=C[C@]4(C)[C@@]3(F)[C@@H](O)C[C@@]21C`, which “activity change, negative = inhibition” value is on record?
The value was inactive: -1.58%.
